Measurements published in paper PMC7718735.
These are yes or no findings as the source states them, for the method shown.

T1: Lem2 MYTH bait (S. pombe) (UniProt Q10109)
T1 sequence: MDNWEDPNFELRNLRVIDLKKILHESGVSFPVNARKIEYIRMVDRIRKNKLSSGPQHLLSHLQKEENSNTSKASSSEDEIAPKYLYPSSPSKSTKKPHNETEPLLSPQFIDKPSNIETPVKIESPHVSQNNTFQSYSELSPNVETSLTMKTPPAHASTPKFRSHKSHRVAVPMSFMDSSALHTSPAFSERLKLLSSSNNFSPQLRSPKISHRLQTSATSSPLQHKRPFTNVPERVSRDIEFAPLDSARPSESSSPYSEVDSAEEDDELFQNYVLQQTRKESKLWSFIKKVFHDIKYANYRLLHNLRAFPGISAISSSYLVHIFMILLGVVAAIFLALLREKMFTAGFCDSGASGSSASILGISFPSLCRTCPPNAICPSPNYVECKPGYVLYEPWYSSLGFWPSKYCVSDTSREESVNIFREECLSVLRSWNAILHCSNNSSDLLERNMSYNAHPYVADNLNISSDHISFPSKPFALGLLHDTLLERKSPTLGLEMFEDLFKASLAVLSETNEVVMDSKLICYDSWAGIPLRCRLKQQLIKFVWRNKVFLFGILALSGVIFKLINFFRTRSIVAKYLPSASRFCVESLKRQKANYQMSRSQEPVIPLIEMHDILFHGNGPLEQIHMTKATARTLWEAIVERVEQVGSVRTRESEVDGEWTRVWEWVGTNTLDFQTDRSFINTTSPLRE

B1: Lem2 MYTH prey (protein, UniProt Q10109 1-688)
chain: T1 sequence
B2: Swi6 MYTH prey (protein, UniProt P40381 1-328)
chain: MKKGGVRSYRRSSTSKRSVIDDDSEPELPSMTKEAIASHKADSGSSDNEVESDHESKSSSKKLKENAKEEEGGEEEEEDEYVVEKVLKHRMARKGGGYEYLLKWEGYDDPSDNTWSSEADCSGCKQLIEAYWNEHGGRPEPSKRKRTARPKKPEAKEPSPKSRKTDEDKHDKDSNEKIEDVNEKTIKFADKSQEEFNENGPPSGQPNGHIESDNESKSPSQKESNESEDIQIAETPSNVTPKKKPSPEVPKLPDNRELTVKQVENYDSWEDLVSSIDTIERKDDGTLEIYLTWKNGAISHHPSTITNKKCPQKMLQFYESHLTFRENE
B3: Chp1 MYTH prey (protein, UniProt Q10103 1-960)
chain: MVSVKPLPDIDSNEGETDADVYEVEDILADRVNKNGINEYYIKWAGYDWYDNTWEPEQNLFGAEKVLKKWKKRKKLIAKGLLEPFDAEDNEAKKMKREKEILRQQRQKRKSELTQLSQKVKEKFKKMRKKPARRIVTIANDEEEEDDQTMDEDAFERKSMQGELKERNLTDKTSTLSTSFGETSPDVNPFYLSEWPTVTDSILLSKSLSSDAIPLKNGEIKSTMLMPSDSDNSVPGIQNSNNLENTGAFVENANSPQSNTPLSTFRHSSPLSLSPVITSDNDVANSLFFSNSTPLPSSLKIKKEAPKLETHTILVSDNSGSLTKQDILSYFAFIKGNIEVFFLKSPKKDKVCNMAYIQFDSIEQAKLAYDKGHPSWHVTLVKGKISTDMEECKVSKSILKTTPSKKANARSVSFTQTTTDTLSESEKFASNVDLDENFDFNVNVTNEDAKQLKKSVIGSSWTTVNNDWNSVSKSDQTFENDGASKVVPAGNITLNSDNSLHHSISESEDLSSASTLSDYFRFVLRVGKSLYYAGELSFDISKLKAETEHQQLLRSLVSCKQVDVLRFVTSQYLEVFGTCLTKVLSGSLCIRSDVDMTHFKNILNRGNGAGIVLGSNYTLLLFTEDNNALMNLYDCQGQSNSPFWMVIFEPLESILVEWSAKNLRPKKPYHKSQSYLSYLLQLGHIDLHKIGAFQATQILIVSKQPSPEAEELEDTFREAAIPTFRGLEIPESLFLSQNVFVFLNVSLEDDFDQLQFLTLAKRKSCKFFLFGLSLPLKSPNDSHVGTDFKKNNEPLDKLTYSQYLRPMFPKGGVVSVTLSALIKTPRLLELISPFLEIKKDSWILILPPSIVDMVKSYFVTNNPDKSLLEIQNLLNTLQRYLTNPALKNVTLYQDWDIVIDDSADVSLASTLQLYQKKNYDKYRRFVLIHELKNELTPVNGLDIVDYDEFKETFMRAIGLK

The binders below were run against T1, Lem2 MYTH bait (S. pombe) (assay: two-hybrid; split-ubiquitin membrane yeast two-hybrid (MYTH) in S. cerevisiae; bait-Cub-LexA-VP16 strains mated with the arrayed Nub prey library, diploids spotted in quadruplicate on SD-leu-trp-ade-his with 25 mM 3-AT, imaged every 24 hr for 4 days; positive by a colony density cutoff).

binding, no binding:
B1
B2
B3
